PubChem BioAssay AID1030 (National Center for Advancing Translational Sciences (NCATS), 2008)
Among all 220,000 compounds or so, about 16,000 (7.3%) were called active. Inconclusive means that the source gave no clear call. Such entries were picked first, then a sample of the others. Calls follow the shape of the dose curve; as a rule, active = well fitted inhibition curve with a large enough effect (not every such curve was filed as active); inconclusive = small, poorly fitted or top-dose-only effect, or another doubt; inactive = no such curve, though single readings can be large or run the other way. Where the call is inconclusive, the potency comes from a doubtful curve fit.

Biological target: Aldehyde dehydrogenase 1A1 (Homo sapiens) (UniProt P00352)
Sequence of UniProt P00352 (P00352 whole entry, looked up): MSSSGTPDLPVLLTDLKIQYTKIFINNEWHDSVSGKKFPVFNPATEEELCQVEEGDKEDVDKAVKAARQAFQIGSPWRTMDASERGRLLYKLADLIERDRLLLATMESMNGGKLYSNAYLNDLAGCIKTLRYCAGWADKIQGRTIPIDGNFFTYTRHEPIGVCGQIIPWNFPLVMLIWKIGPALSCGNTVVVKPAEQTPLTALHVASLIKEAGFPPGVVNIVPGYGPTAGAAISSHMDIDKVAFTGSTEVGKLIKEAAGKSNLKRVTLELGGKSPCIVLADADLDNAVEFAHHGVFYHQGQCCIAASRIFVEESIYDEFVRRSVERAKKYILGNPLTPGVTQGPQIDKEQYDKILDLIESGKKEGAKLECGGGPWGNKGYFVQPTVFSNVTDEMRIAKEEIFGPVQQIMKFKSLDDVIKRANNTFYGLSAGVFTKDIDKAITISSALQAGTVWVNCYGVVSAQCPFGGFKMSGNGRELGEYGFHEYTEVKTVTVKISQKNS
Test: qHTS Assay for Inhibitors of Aldehyde Dehydrogenase 1 (ALDH1A1);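 as to activity, negative = inhibition: plate controls were no enzyme wells and a reference inhibitor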
Settings: Purified ALDH1A1, NADH fluorescence, propionaldehyde substrate; series mostly up to 75.3 µM; activity, negative = inhibition: at the top concentration
Potency is read from the fitted curve at half-maximal effect; tags tell the direction and shape of the fitted curve.

activity, negative = inhibition, inactive:
Cn1cccc1CC(=O)N/N=C\c1c2ccccc2cc2ccccc12 -2.2%
CCc1ccc(/C=C/C(=O)C2C(=O)c3ccccc3C2=O)cc1 13%
CC(c1ccccc1)N1C(=O)C2C3C=CC(C4CC34)C2C1=O (configuration not stated) 6.9%
O=C(Cc1ccccc1)N/N=C/c1cc(Br)c(Br)o1 -3.19%
CCCCCCOC(=O)Cc1c(C)nc(-c2ccccc2)[nH]c1=O -2.3%
CCCN1C=CC(=C/C=C(\C#N)C(=O)OCC)C=C1 -10.1%
COC(=O)[C@@]1(Cc2ccccc2)[C@H]2c3cc(C(=O)N4CCCC4)n(Cc4ccc(S(C)(=O)=O)cc4)c3C[C@H]2CN1C(=O)c1ccccc1 -11.3%
CC(C)CN(C)c1nc(N)c(C(=O)N=C(N)N)nc1Cl -11.6%
C=C(C)COc1ccc(-c2[nH]ncc2-c2ccccc2)c(O)c1 -12.7%
O=C(CSc1ncccn1)NN=C1CCCCCC1 -1.46%
COc1ccccc1-n1cnnc1SC(C)C(=O)Nc1ccc(NC(C)=O)cc1 (configuration not stated) 0.203%
C=C(C)COc1ccc(-c2[nH]ncc2Oc2cccc(OC)c2)c(O)c1 -30.2%
COC(=O)c1ccc(C(=S)N2CCCCC2)cc1 -6.46%
CC1=NOC2(C1)N(C)c1ccccc1C2(C)C (configuration not stated) -0.792%
CN=C1SC(CC(=O)Nc2ccc(F)cc2F)C(=O)N1/N=C/c1ccc(OC(F)F)c(OC)c1 (configuration not stated) 11.7%
COC(=O)CN(C#N)c1nc(N(C)C)nc(N(C)C)n1 -2.44%
CCCn1c2ccccc2c2nc3ccccc3nc21 -10.6%
O=C(O)CCS(=O)(=O)c1cc(Br)cc2c1N(C(=O)C1CC1)CC2 -12.7%
CC1CCCCC1NCC#CCOc1ccc(Cl)cc1 (configuration not stated) -25.4%
CC1CC(=O)NN=C1c1ccc(NCCO)c([N+](=O)[O-])c1 (configuration not stated) -2%

Potency, inactive:
CNC(=O)C1(C)C=CCN1C(=O)c1ccccc1 (configuration not stated)
O=C1OC(=O)C2C3CCC(O3)C12 (configuration not stated)
CCOC(=O)n1ccn(C)c1=S

Potency, inconclusive:
S=C(NCc1ccccn1)Nc1ccc(Br)cc1Cl 35.5 µM [inhibitor, single point]
CC(C)[C@H]1c2ccc(F)cc2CC[C@@]1(CCN(C)CCCc1nc2ccccc2[nH]1)OC(=O)C1CC1 31.6 µM [inhibitor, single point]
COc1ccccc1C1C2=C(COC2=O)Nc2cc3c(cc21)OCO3 (configuration not stated) 31.6 µM [inhibitor, single point]
CCC(c1nc2ccccc2c(=O)n1CCCn1ccnc1)N1C(=O)c2ccccc2C1=O (configuration not stated) 44.7 µM [inhibitor, single point]
COc1ccc(C2C=C(c3ccc(Cl)cc3)Nc3nc(NC(C)=O)nn32)cc1 (configuration not stated) 28.2 µM [inhibitor, partial curve]
Cn1[nH]c(-c2ccccc2)c(/C=N/O)c1=O 39.8 µM [inhibitor, single point]
CCOC(=O)c1c(NC(=O)c2ccc(Cl)s2)sc(C)c1C 7.08 µM [inhibitor, single point]
CC(=O)NC(=S)Nc1ccc(S(=O)(=O)N(C)Cc2ccccc2)cc1 5.01 µM [inhibitor, single point]
Cc1cc(=O)n2[nH]c(-c3ccc(F)cc3)nc2n1 39.8 µM [inhibitor, single point]
c1ccc2c(Nc3nc4c(s3)CCCC4)cccc2c1 31.6 µM [inhibitor, single point]
CCC(CC)c1nc2cc(OC)c(OC)cc2c(=O)o1 39.8 µM [inhibitor, single point]
CCc1ccc(/C=C(/C#N)C(N)=S)s1 35.5 µM [inhibitor, single point]
O=C(CCCc1c[nH]c2ccccc12)N1CCN(S(=O)(=O)c2cccs2)CC1 22.4 µM [inhibitor, partial curve]
N[C@@H](CSC(=O)c1ccccc1)C(=O)O 8.91 µM [inhibitor, single point]
CCOC(=O)Cc1csc(NC(=O)CC(C)(C)CC(=O)O)n1 44.7 µM [inhibitor, single point]
COC(=O)CCNS(=O)(=O)c1ccc2ccccc2c1 11.2 µM [inhibitor, partial curve]
[O-]C1=N/[N+](=C/c2ccccc2Cl)CC1 39.8 µM [inhibitor, single point]
CCOC(=O)c1[nH]c2ccc(F)cc2c1NC(=O)CCN1CCSCC1 39.8 µM [inhibitor, single point]
O=S(=O)(c1ccc(F)cc1)c1nc(-c2ccco2)oc1Nc1ccc(F)cc1 35.5 µM [inhibitor, single point]
Cc1cc(C)cc(OCC(=O)Nc2ccc(N3CCN(S(C)(=O)=O)CC3)cc2)c1 7.08 µM [inhibitor, partial curve]
O=C(NCc1ccco1)c1cc(-c2cccc(Cl)c2)on1 39.8 µM [inhibitor, single point]
O=C(OCc1c(Cl)cccc1Cl)c1cccnc1 39.8 µM [inhibitor, single point]
Cc1cc(NC(=O)CSc2ncn(-c3ccccc3)n2)no1 20 µM [inhibitor, single point]
Cc1cc(C(c2ccc(C)o2)c2ccc(C)o2)c(O)c([N+](=O)[O-])c1 35.5 µM [inhibitor, single point]
C/C=C/c1ccc(OCCCCOc2ccccc2F)c(OC)c1 44.7 µM [inhibitor, single point]
COc1ccc(/C=C/C(=O)Nc2ccc(-n3nncc3-c3ccc(OC)c(OC)c3)cc2)cc1OC 28.2 µM [inhibitor, partial curve]
CCC1CCCCN1C(=O)c1c[nH]c2ccc(S(=O)(=O)N(C)c3ccc(Cl)cc3)cc2c1=O (configuration not stated) 44.7 µM [inhibitor, single point]
O=C(Nc1nc(-c2nc3ccccc3s2)cs1)C1CC1 39.8 µM [inhibitor, single point]
CCOC(=O)c1[nH]c2cc(OC)c(OC)cc2c1NC(=O)C(C)N1CCN(Cc2ccccc2)CC1 (configuration not stated) 25.1 µM [inhibitor, partial curve]
Cc1ccc(NC(=S)NNC(=O)c2ccccc2OC(F)F)cc1 39.8 µM [inhibitor, single point]
COc1ccc(C(=O)N2CCN(c3nc4cc(C)ccc4cc3C#N)CC2)c(OC)c1 39.8 µM [inhibitor, single point]
COC(=O)c1ccc(C(=O)OC)c(NC(=O)CN(c2ccccc2)S(=O)(=O)N(C)C)c1 23.8 µM [inhibitor, partial curve]
O=C(O)C1CC(=O)N(CCC23CC4CC(CC(C4)C2)C3)C(=Nc2ccccc2)S1 (configuration not stated) 39.8 µM [inhibitor, single point]
Cc1nc(NC(=O)c2ccc(F)cc2)sc1C(=O)Nc1ccc2c(c1)CCC2 28.2 µM [inhibitor, single point]
COc1ccc(N2CCN(C(=O)C3CCN(S(=O)(=O)N4CCOCC4)CC3)CC2)cc1 39.8 µM [inhibitor, single point]
COc1ccc(C(=O)N2CCN(c3ccccn3)CC2)cc1[N+](=O)[O-] 14.1 µM [inhibitor, partial curve]
CN(C)NC1CCS(=O)(=O)C1 (configuration not stated) 28.2 µM [inhibitor, single point]
Cc1ccc(C(=O)Nc2ccc3c(c2)nc2n3CCSC2)cc1 12.6 µM [inhibitor, partial curve]
Cc1cc(-c2nn(-c3ccccc3F)cc2CN2CCN(c3ccncc3)CC2)c(C)s1 44.7 µM [inhibitor, single point]
CCOC(=O)/C(C#N)=C1/SC(CC)C(=O)N1c1ccc(C)cc1 (configuration not stated) 3.16 µM [inhibitor, partial curve]
COc1cc2[nH]c(=O)n(CCCC(=O)NCCc3ccccc3)c(=O)c2cc1OC 39.8 µM [inhibitor, single point]

Potency, active:
COC(=O)CSc1nc2c(c(=O)n(C)c(=O)n2C)n1CCC(C)C 12.6 µM
COc1cc(OC)nc(-n2ncc(Br)c(Br)c2=O)n1 10 µM
O=C(N=C1c2ccccc2CN1c1ccc(F)cc1)c1ccc(Cl)nc1 28.2 µM
COc1ccc(CCNC(=O)CCC2COc3ccccc3O2)cc1OC (configuration not stated) 12.6 µM
O=C(CN1CCc2ccccc2C1)c1cccs1 7.94 µM
CCc1c(-c2n[nH]c(=S)n2Cc2ccccc2)csc1C 10 µM
S=C(NCCc1ccccc1)Nc1ccccn1 3.16 µM
O=C(/C=C\NCC(=O)c1ccccc1)c1ccc2ccccc2c1 4.47 µM
O=Cc1cn(-c2ccccc2)nc1-c1ccc2c(c1)OCCO2 17.8 µM
Cc1ccc(-c2nc3ccccc3c(=O)n2Cc2ccccc2)cc1 15.8 µM
Cc1ccc(-c2nnc(N3CCN(C(=O)CN4CCOCC4)CC3)c3ccccc23)cc1 17.8 µM
Cc1nnc(SCc2ccccc2)[nH]c1=O 7.08 µM
C=CCN1C(=O)/C(=C/c2ccc(O)cc2)S/C1=N/c1nccs1 3.16 µM
